Some of the results follow.
Each molecule was assayed on HSkMC (human skeletal muscle cells) (assay: cytotoxicity call (relative viability < 0.9)). Settings: 10 µM.
With `C[C@@H]1CN([C@H](C)CO)C(=O)c2cc(NC(=O)CCCN(C)C)ccc2O[C@@H]1CN(C)C(=O)Nc1ccc2c(c1)OCO2` the cytotoxicity call was “inactive”.
In the case of `CC(=O)Nc1cc2c(cc1N)OCCO2`, the cytotoxicity call is reported as “inactive”.
`C[C@H](CO)N1C[C@H](C)[C@@H](CN(C)S(=O)(=O)c2ccc(F)cc2)Oc2ccc(NS(=O)(=O)c3cn(C)cn3)cc2CC1=O` was tested, and the cytotoxicity call was “inactive”.
With `Cc1noc(C)c1NC(=O)N(C)C[C@H]1OCCCC[C@H](C)Oc2ccc(NC(=O)Nc3ccc4c(c3)OCO4)cc2C(=O)N([C@H](C)CO)C[C@@H]1C` the cytotoxicity call was “inactive”.
For `C[C@@H]1CN([C@H](C)CO)C(=O)c2cccc(NC(=O)c3ccc(-c4nccs4)cc3)c2O[C@@H]1CN(C)Cc1ccc(Cl)c(Cl)c1`, the cytotoxicity call was “inactive”.
`O=C(C[C@@H]1C[C@@H]2c3cc(NC(=O)Nc4ccc(C(F)(F)F)cc4)ccc3O[C@@H]2[C@H](CO)O1)NC1CCCCC1` was tested, and the cytotoxicity call was “inactive”.
For `COc1ccc([Si](C)(C)[C@H]2[C@H](CCO)O[C@@]3(C(=O)N(Cc4ccccc4)c4ccc(N5C(=O)COc6ccccc65)cc43)[C@@H]2C)cc1`, the cytotoxicity call was “inactive”.
With `C[C@@H]1CN([C@@H](C)CO)C(=O)c2cc(NC(=O)Nc3ccc4c(c3)OCO4)ccc2O[C@@H](C)CCCCO[C@@H]1CN(C)S(=O)(=O)c1ccc(Cl)cc1` the cytotoxicity call was “inactive”.
`CN1CCC(Nc2nc(Nc3ccc(Oc4ccccc4)cc3)c3c(O)ncc(Br)c3n2)CC1` was tested, and the cytotoxicity call was “active”.
In the case of `COc1ccc(S(=O)(=O)Nc2cccc3c2O[C@H](CN(C)Cc2ccc(-c4ccccc4)cc2)[C@@H](C)CN([C@@H](C)CO)C3=O)cc1`, the cytotoxicity call is reported as “inactive”.
`C[C@@H]1CN([C@@H](C)CO)C(=O)c2cc(NS(=O)(=O)c3ccccc3)ccc2O[C@H]1CN(C)S(=O)(=O)c1cn(C)cn1` was tested, and the cytotoxicity call was “inactive”.
With `NCC[C@H]1CC[C@@H](NC(=O)NC2CCCCC2)[C@H](CO)O1` the cytotoxicity call was “inactive”.
With `C[C@H]1CN([C@@H](C)CO)C(=O)c2cc(NC(=O)Nc3ccc(F)cc3)ccc2O[C@@H]1CN(C)Cc1ccc(Oc2ccccc2)cc1` the cytotoxicity call was “inactive”.
For `CC(C)NC(=O)Nc1cccc2c1O[C@H](CN(C)Cc1ccc(Oc3ccccc3)cc1)[C@H](C)CN([C@@H](C)CO)C2=O`, the cytotoxicity call was “inactive”.
With `C[C@H]1[C@@H](c2ccccc2)OC(=O)CC[C@H](O)[C@@H](O)C[C@@H](CC(=O)NCc2ccc(Cl)cc2)C(=O)N1C` the cytotoxicity call was “inactive”.
In the case of `C[C@@H]1CN([C@@H](C)CO)C(=O)c2cc(NC(=O)Nc3ccccc3)ccc2O[C@@H](C)CCCCO[C@H]1CN(C)Cc1ccc(C(=O)O)cc1`, the cytotoxicity call is reported as “inactive”.
`COCC#Cc1ccc([C@H]2[C@@H](CO)N3C(=O)CN(C(=O)c4cccnc4)C[C@H]23)cc1` was tested, and the cytotoxicity call was “inactive”.
With `Oc1ccc2c(c1)OCC1(O)Cc3cc(O)c(O)cc3C21` (centres undefined) the cytotoxicity call was “inactive”.
In the case of `Cc1nc2c(c(C)nn2-c2ccccc2)c(C)c1CN`, the cytotoxicity call is reported as “inactive”.
For `C[C@@H]1CCCCO[C@@H](CN(C)Cc2ccncc2)[C@H](C)CN([C@@H](C)CO)C(=O)c2cc(NC(=O)Nc3ccccc3)ccc2O1`, the cytotoxicity call was “inactive”.
In the case of `C[C@H](CO)N1C[C@H](C)[C@@H](CN(C)S(=O)(=O)c2ccc3ccccc3c2)OCc2cnnn2CCCC1=O`, the cytotoxicity call is reported as “inactive”.
With `C[C@@H]1CCCCO[C@@H](CN(C)C(=O)Cc2ccccc2)[C@@H](C)CN([C@@H](C)CO)C(=O)c2cc(NC(=O)CCC(F)(F)F)ccc2O1` the cytotoxicity call was “inactive”.
For `C[C@H](CO)N1C[C@H](C)[C@@H](CN(C)Cc2ccc(C(=O)O)cc2)OCCCC[C@H](C)Oc2ccc(NC(=O)Nc3cccc4ccccc34)cc2C1=O`, the cytotoxicity call was “inactive”.
With `CCN1CCN(Cc2ccc(C(=O)Nc3ccc(C)c(Oc4ccc5c(c4)CC(=O)N5)c3)cc2C(F)(F)F)CC1` the cytotoxicity call was “active”.
In the case of `C[C@@H]1CN([C@@H](C)CO)C(=O)c2cc(NS(C)(=O)=O)ccc2O[C@@H]1CN(C)C(=O)Nc1ccc(C(F)(F)F)cc1`, the cytotoxicity call is reported as “inactive”.
`Cc1cc(C(=O)Nc2cccc3c2O[C@@H](CN(C)S(=O)(=O)c2ccc(Cl)cc2)[C@@H](C)CN([C@H](C)CO)C3=O)n(C)n1` was tested, and the cytotoxicity call was “inactive”.
With `C[C@@H]1CN([C@H](C)CO)C(=O)c2cc(NC(=O)CCC(F)(F)F)ccc2O[C@@H](C)CCCCO[C@@H]1CN(C)Cc1ccccc1` the cytotoxicity call was “inactive”.
For `COc1ccc(NC(=O)N(C)C[C@@H]2Oc3ncc(C#C[C@@H](C)O)cc3C(=O)N([C@@H](C)CO)C[C@H]2C)cc1`, the cytotoxicity call was “inactive”.
For `C[C@@H]1CN([C@@H](C)CO)C(=O)Cc2cc(NS(C)(=O)=O)ccc2O[C@@H]1CN(C)S(=O)(=O)c1cn(C)cn1`, the cytotoxicity call was “inactive”.

What follows are molecules tested on HepG2 (assay: cytotoxicity call (relative viability < 0.9)). Settings: 10 µM.
In the case of `CO[C@H]1O[C@H](CO)[C@@H](OC(=O)c2ccc(Br)cc2)[C@@H]2OC(=O)[C@@H](Cc3ccccc3)C/C=C/C[C@H](Cc3ccccc3)C(=O)O[C@@H]12`, the cytotoxicity call is reported as “inactive”.
For `C[C@H](O)C#Cc1ccc2c(c1)O[C@H](CN(C)C)[C@@H](C)CN([C@H](C)CO)S2(=O)=O`, the cytotoxicity call was “inactive”.
`C[C@H]1CN([C@@H](C)CO)S(=O)(=O)c2ccc(C#Cc3ccccc3)cc2O[C@H]1CN(C)C(=O)CN(C)C` was tested, and the cytotoxicity call was “active”.
`C[C@H](CO)N1C[C@H](C)[C@H](CN(C)S(=O)(=O)c2ccc(Cl)cc2)OCCCC[C@H](C)Oc2ccc(NS(=O)(=O)c3ccc(Cl)cc3)cc2C1=O` was tested, and the cytotoxicity call was “active”.
For `C[C@H]1CC=CC[C@@H](c2cccc(Cl)c2)NC(=O)[C@H](Cc2ccccc2)N(C)C(=O)c2ccccc2O1`, the cytotoxicity call was “inactive”.
With `C[C@@H]1CCCCO[C@H](CN(C)Cc2ccccc2)[C@H](C)CN([C@@H](C)CO)C(=O)c2cc(NS(=O)(=O)c3ccc(Cl)cc3)ccc2O1` the cytotoxicity call was “active”.
`C[C@H](CO)N1C[C@H](C)[C@H](CN(C)CC2CCCCC2)Oc2ccc(NC(=O)Nc3ccc(C(F)(F)F)cc3)cc2C1=O` was tested, and the cytotoxicity call was “active”.
`CN(C)CCCNC(=O)C[C@H]1C=C[C@@H](NC(=O)Cc2cccnc2)[C@H](CO)O1` was tested, and the cytotoxicity call was “inactive”.
In the case of `CCCCNc1ccc(C(=O)OCCN(C)C)cc1.Cl`, the cytotoxicity call is reported as “active”.
With `C=CCN(C(=O)[C@H]1N(CCOCCO)C(=O)[C@H]2[C@H](C(=O)O)[C@@H]3C=C[C@@]21O3)C(C)(C)C` the cytotoxicity call was “inactive”.
In the case of `C[C@@H]1CN([C@H](C)CO)S(=O)(=O)c2ccc(C#Cc3ccncc3)cc2O[C@H]1CN(C)C(=O)C1CCCCC1`, the cytotoxicity call is reported as “active”.
`C[C@@H]1CN([C@H](C)CO)C(=O)c2cc(NC(=O)CCCN(C)C)ccc2O[C@@H]1CN(C)C(=O)Nc1ccc2c(c1)OCO2` was tested, and the cytotoxicity call was “inactive”.
With `CC(=O)Nc1cc2c(cc1N)OCCO2` the cytotoxicity call was “inactive”.
With `C[C@H](CO)N1C[C@H](C)[C@@H](CN(C)S(=O)(=O)c2ccc(F)cc2)Oc2ccc(NS(=O)(=O)c3cn(C)cn3)cc2CC1=O` the cytotoxicity call was “inactive”.
In the case of `Cc1noc(C)c1NC(=O)N(C)C[C@H]1OCCCC[C@H](C)Oc2ccc(NC(=O)Nc3ccc4c(c3)OCO4)cc2C(=O)N([C@H](C)CO)C[C@@H]1C`, the cytotoxicity call is reported as “inactive”.
For `C[C@@H]1CN([C@H](C)CO)C(=O)c2cccc(NC(=O)c3ccc(-c4nccs4)cc3)c2O[C@@H]1CN(C)Cc1ccc(Cl)c(Cl)c1`, the cytotoxicity call was “inactive”.
`O=C(C[C@@H]1C[C@@H]2c3cc(NC(=O)Nc4ccc(C(F)(F)F)cc4)ccc3O[C@@H]2[C@H](CO)O1)NC1CCCCC1` was tested, and the cytotoxicity call was “active”.
`COc1ccc([Si](C)(C)[C@H]2[C@H](CCO)O[C@@]3(C(=O)N(Cc4ccccc4)c4ccc(N5C(=O)COc6ccccc65)cc43)[C@@H]2C)cc1` was tested, and the cytotoxicity call was “active”.
With `C[C@@H]1CN([C@@H](C)CO)C(=O)c2cc(NC(=O)Nc3ccc4c(c3)OCO4)ccc2O[C@@H](C)CCCCO[C@@H]1CN(C)S(=O)(=O)c1ccc(Cl)cc1` the cytotoxicity call was “inactive”.
With `CN1CCC(Nc2nc(Nc3ccc(Oc4ccccc4)cc3)c3c(O)ncc(Br)c3n2)CC1` the cytotoxicity call was “active”.
`COc1ccc(S(=O)(=O)Nc2cccc3c2O[C@H](CN(C)Cc2ccc(-c4ccccc4)cc2)[C@@H](C)CN([C@@H](C)CO)C3=O)cc1` was tested, and the cytotoxicity call was “inactive”.
For `C[C@@H]1CN([C@@H](C)CO)C(=O)c2cc(NS(=O)(=O)c3ccccc3)ccc2O[C@H]1CN(C)S(=O)(=O)c1cn(C)cn1`, the cytotoxicity call was “inactive”.
For `NCC[C@H]1CC[C@@H](NC(=O)NC2CCCCC2)[C@H](CO)O1`, the cytotoxicity call was “inactive”.
With `C[C@H]1CN([C@@H](C)CO)C(=O)c2cc(NC(=O)Nc3ccc(F)cc3)ccc2O[C@@H]1CN(C)Cc1ccc(Oc2ccccc2)cc1` the cytotoxicity call was “active”.
With `CC(C)NC(=O)Nc1cccc2c1O[C@H](CN(C)Cc1ccc(Oc3ccccc3)cc1)[C@H](C)CN([C@@H](C)CO)C2=O` the cytotoxicity call was “inactive”.
In the case of `C[C@H]1[C@@H](c2ccccc2)OC(=O)CC[C@H](O)[C@@H](O)C[C@@H](CC(=O)NCc2ccc(Cl)cc2)C(=O)N1C`, the cytotoxicity call is reported as “inactive”.
For `C[C@@H]1CN([C@@H](C)CO)C(=O)c2cc(NC(=O)Nc3ccccc3)ccc2O[C@@H](C)CCCCO[C@H]1CN(C)Cc1ccc(C(=O)O)cc1`, the cytotoxicity call was “inactive”.
`COCC#Cc1ccc([C@H]2[C@@H](CO)N3C(=O)CN(C(=O)c4cccnc4)C[C@H]23)cc1` was tested, and the cytotoxicity call was “inactive”.
For `Oc1ccc2c(c1)OCC1(O)Cc3cc(O)c(O)cc3C21` (centres undefined), the cytotoxicity call was “inactive”.
In the case of `Cc1nc2c(c(C)nn2-c2ccccc2)c(C)c1CN`, the cytotoxicity call is reported as “inactive”.
With `C[C@@H]1CCCCO[C@@H](CN(C)Cc2ccncc2)[C@H](C)CN([C@@H](C)CO)C(=O)c2cc(NC(=O)Nc3ccccc3)ccc2O1` the cytotoxicity call was “inactive”.
`C[C@H](CO)N1C[C@H](C)[C@@H](CN(C)S(=O)(=O)c2ccc3ccccc3c2)OCc2cnnn2CCCC1=O` was tested, and the cytotoxicity call was “inactive”.
For `C[C@@H]1CCCCO[C@@H](CN(C)C(=O)Cc2ccccc2)[C@@H](C)CN([C@@H](C)CO)C(=O)c2cc(NC(=O)CCC(F)(F)F)ccc2O1`, the cytotoxicity call was “inactive”.
`C[C@H](CO)N1C[C@H](C)[C@@H](CN(C)Cc2ccc(C(=O)O)cc2)OCCCC[C@H](C)Oc2ccc(NC(=O)Nc3cccc4ccccc34)cc2C1=O` was tested, and the cytotoxicity call was “inactive”.
With `CCN1CCN(Cc2ccc(C(=O)Nc3ccc(C)c(Oc4ccc5c(c4)CC(=O)N5)c3)cc2C(F)(F)F)CC1` the cytotoxicity call was “active”.
